Experimental data reported in the supplement of paper PMC11417369.
Some of the results follow.

These sequences were tested on PfAP2-HC AP2 domain (GST-tagged) (assay: gcPBM binding intensity (ln(normalized median fluorescence intensity)); higher = stronger DNA binding).
Summary of the method: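 Binding intensity is defined as the maximum Masliner-normalised natural-log median intensity across replicate spots for either probe orientation. It was measured on an Agilent 4 × 180k array of primer-extended double-stranded 36-bp intergenic genomic probes and negative controls, to which GST-tagged P. falciparum DNA-binding domains made in E. coli were applied for 1 h in 1× PBS with 1% milk, 0.2 mg/ml BSA, 0.5% salmon testes DNA and 0.03% Triton X-100. Detection was by Alexa488 anti-GST antibody and scanning at 488 nm.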

Sequence | gcPBM binding intensity (ln)
GTATATAATTTTTTTTTTTTTTTCATTCTTTTCCTT [CACACA_negctrl_site1780] | 9.46
ATGAATTGACCATATTGTACATATTTAGGACTTACC [XGTACX_site8072] | 9.55
AAATATATGAAATATACACACTTCTTTGGTATTATT [CACACA_site4414] | 9.81
TTTATATAATTTTAATGTACATATATATATATAAAT [XGTACX_site4381] | 9.52
TTTTCTTACATGAGTGTACACACTTTTTTTCAGAAA [CACACA_site70] | 9.71
TTCTTCACATACACTTCAAAATTTGATAAAACATTA [CACACA_negctrl_site472] | 9.67
TAATAAATAAGATTCACACATATTTAAATGTTATGC [CACACA_site5275] | 9.54
TATCTATAATATTATACACACATATATGCATAATAT [CACACA_site6175] | 9.98
TTATTTGAATAATGTTTGCACTTAGAGTATTTTATA | 9.57
ATATATCATAAATAAATGAAAATATTTTCTATGTGT [CACACA_negctrl_site689] | 9.66
AATCAAAATAATTTAACACACAATTTTAATACTGTT [CACACA_site2375] | 9.75
AAATTCCATGAAAAAAGTACTAATTAATACAATATA [XGTACX_site2877] | 9.69
TTTAAGAATTAACGGGGTACAATTCTTAAATATATA [XGTACX_site669] | 9.31
TAGAAGTACATATATGCATGTTAATTTTAAAGGAGG [TGCATGCA_site538] | 9.75
ATATATATATAGTGTTGTACATTTAAAAATAATATA [XGTACX_site2627] | 9.71
ATTAAAAATATTAGTTGTACTTTATATTTTCATATA [XGTACX_site3614] | 9.57
TGTTTTATTTTTTTTGTGCACATACCTTTAGCATCA [GTGCAC_site9812] | 9.88
TAATTATAATAAATATTCATATGTTCAAATATATAT [CACACA_negctrl_site151] | 9.42
ATGTGATAGAAGTACACACACATATGTATTTATAAT [CACACA_site5075] | 10.1

Sequence | gcPBM binding intensity (ln)
TTTTAAAAACGGCATGCATGTAATACATGGAAGGAA [TGCATGCA_site480] | 10
TATATATAATTCATACATTTTAAATATATTTATTTA [CACACA_negctrl_site840] | 9.33
TTTGTTGACAGACACACACACATACATATATATATA [CACACA_site2288] | 10.4
TATAATAATATAATGGTGCATGTATATAACCATATA | 9.57
AAATAAATATAAATAAATAAATAAATAAATATATAT [CACACA_negctrl_site827] | 9.79
TTAATAATTCTTAAAAGTACATAACTTTTTTTTTTT [XGTACX_site751] | 9.33
GCTCTTTTGTTATGGTGTACCCTCCATGTAACATAA [XGTACX_site91] | 9.63
TCTTACGGATTCATTGTGCACATATATATATATATA [GTGCAC_site9896] | 10.1
TTTTTTATTAAAAGTAGTACACATGAAAAAAAAAAA [XGTACX_site5524] | 9.53
ATTTTTATAGAAATATGTACACAATATGTATATATT [XGTACX_site7993] | 9.71
TTAATATAGATATAACCACACACATACATCTAATTC [CACACA_site8519] | 10.2
TTTAAAAAAATTCATGCACACGAAATAAAAAGCACC [CACACA_site8214] | 9.86
TCTTTTATGCACATTGAGTAAACAACATATTTTTAA [TGCATGCA_negctrl_site561] | 9.61
TATTTTATATGATAGGTGCATTTTTTTTTTTTTTTT [GTGCAC_site9757] | 9.56
ATTTTTTCAAAATGGAAAACTTATCAGTGAAAAAAA [CACACA_negctrl_site1087] | 9.56
CTTGACCCCCTTTGTTGTACTGACATTTGTGAGCTT [XGTACX_site591] | 9.63
ATTTTTTTATACAATTTTATATATTAAATATTATAA [GTGCAC_negctrl_site86] | 9.35
TGTATTTTTAACATATGTACGAATAGCACGTGTTAT [XGTACX_site3640] | 9.59
TAAAAATGGGAGGGGTGTACTACACAATAAAATTAT [XGTACX_site5641] | 9.8

Sequence | gcPBM binding intensity (ln)
TTTGTGTAAAGAATCAGTACATATAATATATATATA [XGTACX_site1972] | 9.57
ATATGTATTGGAGTGTGTACATATATATATATTTAT [XGTACX_site5633] | 9.96
TTAATAATGTTTTATTGTACTTTTTTGTGGGTTTAT [XGTACX_site5670] | 9.84
GTGCTACATCATATGTGTACATATACCAAACTGTAT [XGTACX_site8233] | 9.81
ATATACATTCAAGGCTGTACACTATATTTTTTTTTT [XGTACX_site6514] | 9.82
AGTATACACGAACACACACACACATATATAAATATA [CACACA_site6913] | 10.7
TAAAGTATTACAACCACACACACACCCATATATTAT [CACACA_site4159] | 11.1
TATAAAATTATTAAACAAGAAAATTTTAGGTAATAC [TGCATGCA_negctrl_site568] | 9.7
ATAATATATTTTTGAACACACAATATATATATATAT [CACACA_site4124] | 9.66
ATATAAATATGACACACACACAAAAAAAATAAAGAC [CACACA_site6208] | 10.7
TATAATATATTTTGATGTACAAATATATTATATATA [XGTACX_site8633] | 9.54
TTGATAAAACGTTATGCACACGTACGTGGGTATTTA [CACACA_site8445] | 9.85
TAATTTAAAAATTCCTGTACTCAGTTTTTTCTATTT [XGTACX_site4961] | 9.76
TAAGTGTATGTATATAAACACACATACATATATATA [CACACA_site8397] | 9.93
AAAAATATGTCCATGAAAAGGATAGGCAGGTAATCA [XGTACX_negctrl_site93] | 9.8
AAATATATTTTACATTGTACATGAATAAACTATAAA [XGTACX_site2080] | 9.45
AAAAATTAAATAAATTTACACACTAATAATTACATA [CACACA_site8260] | 9.63
ACGTTAAAATATTGGGTGCTAACACAATAAAAATAA | 9.77
TACAATTTTTTAAATGCACACAAAAGGAATAAATAA [CACACA_site8075] | 9.8
